Data as given in article PMC9911399, “Two distinct binding modes provide the RNA-binding protein RbFox with extraordinary sequence specificity”.
Numbering of substitutions follows the chain as printed; changes in the protein carry UniProt numbers. Some of the results follow.

T1: RBFOX1 RRM (Homo sapiens, UniProt Q9NWB1 109-208)
T1 sequence: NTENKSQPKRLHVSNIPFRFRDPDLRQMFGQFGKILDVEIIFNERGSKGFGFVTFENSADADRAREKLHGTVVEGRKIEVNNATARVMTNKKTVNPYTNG

B1: GAUCUAA (DNA:RNA)
RNA: GGGAGACCGGAAUUCAGAUUGUCCGAUCUAAUUAAAUCCCGUCGUAGCCACCA
DNA 1: CAATCTGAATTCCGGTCTCCC
DNA 2: TGGTGGCTACGACGGGATT
B2: CUUAUCG (DNA:RNA)
RNA: B1 RNA with G25C, A26U, C28A, A30C, A31G
DNA 1: CAATCTGAATTCCGGTCTCCC
DNA 2: TGGTGGCTACGACGGGATT
B3: GGACGAC (DNA:RNA)
RNA: B1 RNA with A26G, U27A, U29G, A31C
DNA 1: CAATCTGAATTCCGGTCTCCC
DNA 2: TGGTGGCTACGACGGGATT
B4: AACCUCA (DNA:RNA)
RNA: B1 RNA with G25A, U27C, A30C
DNA 1: CAATCTGAATTCCGGTCTCCC
DNA 2: TGGTGGCTACGACGGGATT
B5: UGAAGUG (DNA:RNA)
RNA: GGGAGACCGGAAUUCAGAUUGUCCUGAAGUGUUAAAUCCCGUCGUAGCCACCA
DNA 1: CAATCTGAATTCCGGTCTCCC
DNA 2: TGGTGGCTACGACGGGATT
B6: UUACUCU (DNA:RNA)
RNA: B1 RNA with G25U, A26U, U27A, A30C, A31U
DNA 1: CAATCTGAATTCCGGTCTCCC
DNA 2: TGGTGGCTACGACGGGATT
B7: AUUCACU (DNA:RNA)
RNA: B1 RNA with G25A, A26U, U29A, A30C, A31U
DNA 1: CAATCTGAATTCCGGTCTCCC
DNA 2: TGGTGGCTACGACGGGATT
B8: GCUACGU (DNA:RNA)
RNA: B1 RNA with A26C, C28A, U29C, A30G, A31U
DNA 1: CAATCTGAATTCCGGTCTCCC
DNA 2: TGGTGGCTACGACGGGATT
B9: CAAGAGA (DNA:RNA)
RNA: B1 RNA with G25C, U27A, C28G, U29A, A30G
DNA 1: CAATCTGAATTCCGGTCTCCC
DNA 2: TGGTGGCTACGACGGGATT
B10: GGAGCCG (DNA:RNA)
RNA: B5 RNA with U25G, A28G, G29C, U30C
DNA 1: CAATCTGAATTCCGGTCTCCC
DNA 2: TGGTGGCTACGACGGGATT
B11: UGAAUCU (DNA:RNA)
RNA: B5 RNA with G29U, U30C, G31U
DNA 1: CAATCTGAATTCCGGTCTCCC
DNA 2: TGGTGGCTACGACGGGATT
B12: UUCGUAG (DNA:RNA)
RNA: B1 RNA with G25U, A26U, U27C, C28G, A31G
DNA 1: CAATCTGAATTCCGGTCTCCC
DNA 2: TGGTGGCTACGACGGGATT
B13: AACGGUG (DNA:RNA)
RNA: B5 RNA with U25A, G26A, A27C, A28G
DNA 1: CAATCTGAATTCCGGTCTCCC
DNA 2: TGGTGGCTACGACGGGATT
B14: CAUCGAC (DNA:RNA)
RNA: B1 RNA with G25C, U29G, A31C
DNA 1: CAATCTGAATTCCGGTCTCCC
DNA 2: TGGTGGCTACGACGGGATT
B15: CAGUAUA (DNA:RNA)
RNA: B1 RNA with G25C, U27G, C28U, U29A, A30U
DNA 1: CAATCTGAATTCCGGTCTCCC
DNA 2: TGGTGGCTACGACGGGATT
B16: CAGGAUU (DNA:RNA)
RNA: B1 RNA with G25C, U27G, C28G, U29A, A30U, A31U
DNA 1: CAATCTGAATTCCGGTCTCCC
DNA 2: TGGTGGCTACGACGGGATT
B17: UUAAGAG (DNA:RNA)
RNA: B5 RNA with G26U, U30A
DNA 1: CAATCTGAATTCCGGTCTCCC
DNA 2: TGGTGGCTACGACGGGATT
B18: AAGCUAG (DNA:RNA)
RNA: B1 RNA with G25A, U27G, A31G
DNA 1: CAATCTGAATTCCGGTCTCCC
DNA 2: TGGTGGCTACGACGGGATT
B19: AGUACCA (DNA:RNA)
RNA: B1 RNA with G25A, A26G, C28A, U29C, A30C
DNA 1: CAATCTGAATTCCGGTCTCCC
DNA 2: TGGTGGCTACGACGGGATT
B20: CGCGACA (DNA:RNA)
RNA: B1 RNA with G25C, A26G, U27C, C28G, U29A, A30C
DNA 1: CAATCTGAATTCCGGTCTCCC
DNA 2: TGGTGGCTACGACGGGATT

These binders were tested against T1, RBFOX1 RRM (assay: EMSA; HiTS-Eq, 1 nM pool, 10 min; buffer printed only for the single-RNA assays: 10 mM Tris pH 7.5, 150 mM NaCl, 3.4 mM EDTA, 0.001% NP-40, 30 C). Settings: tags: His6 N-terminal (pET28a); label: 5' 32P.
Procedure, shortened: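 Purified wild-type or mutant RbFox RRM at increasing concentrations was equilibrated with 1 nM of 5′-radiolabelled RNA carrying 7 randomized nucleotides for 10 min in 50 µL. Unbound RNA was separated by 8% native PAGE and sequenced. Relative association constants came from read-count changes of each RNA species compared with the control reaction, normalised to the cognate motif.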
With B1 the binding signal was 0.00941 KA relative to UGCAUGU.
B2 was tested, and the binding signal was 0.0057 KA relative to UGCAUGU.
In the case of B3, the binding signal is reported as 0.0241 KA relative to UGCAUGU.
For B4, the binding signal was 0.000268 KA relative to UGCAUGU.
With B5 the binding signal was 0.0247 KA relative to UGCAUGU.
For B6, the binding signal was 0.00661 KA relative to UGCAUGU.
B7 was tested, and the binding signal was 0.00101 KA relative to UGCAUGU.
In the case of B8, the binding signal is reported as 0.0152 KA relative to UGCAUGU.
In the case of B9, the binding signal is reported as 0.00424 KA relative to UGCAUGU.
B10 was tested, and the binding signal was 0.0162 KA relative to UGCAUGU.
For B11, the binding signal was 0.014 KA relative to UGCAUGU.
For B12, the binding signal was 0.0136 KA relative to UGCAUGU.
For B13, the binding signal was 0.0116 KA relative to UGCAUGU.
B14 was tested, and the binding signal was 0.00513 KA relative to UGCAUGU.
With B15 the binding signal was 0.00141 KA relative to UGCAUGU.
B16 was tested, and the binding signal was 0.0118 KA relative to UGCAUGU.
For B17, the binding signal was 0.0159 KA relative to UGCAUGU.
In the case of B18, the binding signal is reported as 0.0116 KA relative to UGCAUGU.
With B19 the binding signal was 0.00585 KA relative to UGCAUGU.
For B20, the binding signal was 0.00694 KA relative to UGCAUGU.
